Molecular target: T1, human BCMA (B-cell maturation antigen) on cells (human, UniProt Q02223 1-184)
T1 construct: whole, on cells; also called hBCMA; hBCMA/HEK293 cell line
T1 sequence (looked up): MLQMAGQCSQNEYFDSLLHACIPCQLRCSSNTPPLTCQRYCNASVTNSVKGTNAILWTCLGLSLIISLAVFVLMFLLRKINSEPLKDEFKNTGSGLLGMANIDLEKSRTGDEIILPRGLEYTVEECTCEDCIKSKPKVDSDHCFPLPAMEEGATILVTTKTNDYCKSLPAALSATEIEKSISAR
Experiment: flow cytometry, hBCMA-expressing HEK293 against parental HEK293 cells
Experimental: Binding of exemplary scFv clones to hBMCA-expressing HEK293 cells was assessed and binding was compared to parental HEK293 cells.

B1: BCMA-19 anti-BCMA scFv (scFv)
scFv: [about 100 residues not spelt out]DGGDVWGQGTTVTVSSGGGGSGGGGSGGGGSQAVLTQPASVSGSPGQSITISCTGTSSDVGDYNYVAWYQQHPGKDPKLMIFEVINRPSGVSDRFSGSKSGNTASLDISGLQPEDEADYYCISYSRGSTPYVIGTGTKVTVL
notes: VH-(G4S)3-VL scFv
fold selective binding (hBCMA-expressing HEK293 over parental HEK293 cells): 4.2 fold

— patent US20200392236A1 (JUNO THERAPEUTICS, published 2020)
